In one test the test system is HSkMC. The test can be described thus: cytotoxicity call (relative viability < 0.9). Particulars: 10 µM.
In another test the test system is HepG2. As to the kind of experiment: cytotoxicity call (relative viability < 0.9). Particulars: 10 µM.
In another test the test system is S. aureus RN4220. As to the kind of experiment: growth inhibition call (relative growth <= 0.2). Particulars: 50 µM.

The other results are listed elsewhere or left out.

In the case of `CC(=O)O[C@H]1C[C@@H]2CC[C@@H]3[C@H](CC[C@@]4(C)[C@H]3C[C@H]([N+]3(C)CCCCC3)[C@@H]4OC(C)=O)[C@@]2(C)C[C@@H]1[N+]1(C)CCCCC1`, the cytotoxicity call in the test on HSkMC and with HepG2 was “inactive” in each case. The growth inhibition call in the test with S. aureus RN4220 was “inactive”.

In the case of `C[C@H](CO)N1C[C@H](C)[C@H](CN(C)C(=O)Oc2cccc3ccccc23)OCc2cnnn2CCCC1=O`, the cytotoxicity call with HSkMC and in the test on HepG2 was “inactive” in each case. Moreover, the growth inhibition call in the test with S. aureus RN4220 is “inactive”.

`CCOP(=S)(OCC)Oc1nc(Cl)c(Cl)cc1Cl`: the cytotoxicity call in the test with HSkMC and with HepG2 was “inactive” throughout. Moreover, in the test on S. aureus RN4220, the growth inhibition call was “inactive”.

On to `CCn1cnc2c(Nc3cccc(Cl)c3)nc(N[C@@H]3CCCC[C@@H]3N)nc21`, for which the cytotoxicity call with HSkMC and in the test with HepG2 was “active” each time. In addition, in the test with S. aureus RN4220, the growth inhibition call is “inactive”.

As for `C[C@@H]1NC[C@@H]2CCCN2C1=O`, the cytotoxicity call in the test with HSkMC and with HepG2 was “inactive” each time. The growth inhibition call in the test with S. aureus RN4220 is “inactive”.

For `CN(C)c1ccc(CCN)cc1`, the cytotoxicity call with HSkMC and with HepG2 was “inactive” throughout. For the same compound, the growth inhibition call with S. aureus RN4220 is “inactive”.

For `[N-]=[N+]=NCC(=O)N1CCOCC1`, the cytotoxicity call in the test with HSkMC and in the test with HepG2 was “inactive” in each case. In addition, the growth inhibition call with S. aureus RN4220 was “inactive”.

For the compound `O=C1NC(=O)C(=O)C(=O)N1`, the cytotoxicity call in the test on HSkMC and in the test on HepG2 was “inactive” in each case. For the same compound, in the test with S. aureus RN4220, the growth inhibition call is “inactive”.

`C=C1CC2C(CCC3(C)C(=O)CCC23)C2(C)C=CC(=O)C=C12` (stereo not drawn): the cytotoxicity call in the test on HSkMC and in the test with HepG2 was “inactive” in each case. In the test on S. aureus RN4220, the growth inhibition call is “inactive”.

For `NCc1[nH]nc2cc(F)ccc12`, the cytotoxicity call with HSkMC and in the test on HepG2 was “inactive” throughout. Besides, in the test with S. aureus RN4220, the growth inhibition call is “inactive”.

Consider `CC(C)CC1C(=O)N2CCCC2C2(O)OC(NC(=O)C3C=C4c5cccc6[nH]c(Br)c(c56)CC4N(C)C3)(C(C)C)C(=O)N12.CS(=O)(=O)O` (stereo not drawn), for which the cytotoxicity call with HSkMC and with HepG2 was “inactive” in each case. For the same compound, in the test on S. aureus RN4220, the growth inhibition call was “inactive”.

As to `CC(=C1C(=O)NC(=O)NC1=O)c1ccc(N)cc1`, the cytotoxicity call with HSkMC and in the test on HepG2 was “inactive” throughout. In addition, the growth inhibition call with S. aureus RN4220 was “inactive”.

For the compound `CCOC(=O)c1cncn1C(C)c1ccccc1` (stereo not drawn), the cytotoxicity call in the test on HSkMC and in the test with HepG2 was “inactive” in each case. Also, the growth inhibition call with S. aureus RN4220 was “inactive”.

Turning to `CN1C(=O)N(C)C2C1N(C)C(=O)N2C` (stereo not drawn), the cytotoxicity call in the test on HSkMC and in the test with HepG2 was “inactive” each time. Moreover, the growth inhibition call in the test with S. aureus RN4220 was “inactive”.

As for `O=[N+]([O-])c1ccc([As](=O)(O)O)cc1`, the cytotoxicity call in the test on HSkMC and in the test on HepG2 was “inactive” each time. In the test with S. aureus RN4220, the growth inhibition call is “inactive”.

Consider `COP(=S)(OC)Oc1ccc([N+](=O)[O-])cc1`, for which the cytotoxicity call with HSkMC and in the test with HepG2 was “inactive” in each case. In addition, the growth inhibition call in the test on S. aureus RN4220 was “inactive”.

For the compound `O=C(O)CCCc1ccc(N(CCCl)CCCl)cc1`, the cytotoxicity call with HSkMC and in the test with HepG2 was “inactive” throughout. Moreover, the growth inhibition call in the test with S. aureus RN4220 was “inactive”.

For the compound `CC12CCC3c4ccc(OC(=O)N(CCCl)CCCl)cc4CCC3C1CCC2O` (stereo not drawn), the cytotoxicity call in the test with HSkMC is “inactive”. For the same compound, in the test with HepG2, the cytotoxicity call is “active”. Also, the growth inhibition call in the test on S. aureus RN4220 is “inactive”.

As to `Br.COC(=O)C1=CCCN(C)C1`, the cytotoxicity call with HSkMC was “inactive”. Moreover, in the test on HepG2, the cytotoxicity call was “active”. In addition, the growth inhibition call in the test with S. aureus RN4220 was “inactive”.

As for `Oc1ccccc1N1CCNCC1`, the cytotoxicity call with HSkMC and in the test with HepG2 was “inactive” throughout. Moreover, the growth inhibition call in the test with S. aureus RN4220 is “inactive”.

As to `COC1=CC2C3Cc4ccc(OC)c(O)c4C2(CCN3C)CC1=O` (stereo not drawn), the cytotoxicity call in the test on HSkMC and in the test with HepG2 was “inactive” each time. In addition, the growth inhibition call in the test with S. aureus RN4220 was “inactive”.

As for `O=[N+]([O-])NC1=NCCN1Cc1ccc(Cl)nc1`, the cytotoxicity call in the test on HSkMC and with HepG2 was “inactive” throughout. For the same compound, the growth inhibition call in the test with S. aureus RN4220 was “inactive”.

With `C=C(C)[C@H]1O[C@H]2CC[C@@]3(C)[C@@](O)(CC[C@H]4[C@@H]5OC(C)(C)[C@H]6C[C@@H]7C(=C)Cc8c(Cl)cc9[nH]c(c5c9c8[C@@]76O)[C@@]43C)[C@]23O[C@@H]3[C@H]1O`, the cytotoxicity call in the test on HSkMC and in the test with HepG2 was “inactive” in each case. The growth inhibition call with S. aureus RN4220 is “inactive”.

Take `COc1ccc2c(c1)[nH]c1c(C)nccc12`: in the test on HSkMC, the cytotoxicity call was “inactive”. Moreover, the cytotoxicity call with HepG2 was “active”. Besides, the growth inhibition call with S. aureus RN4220 was “inactive”.

`CCCCC(=O)N1CC[C@H]2CNC[C@H]21`: the cytotoxicity call with HSkMC and with HepG2 was “inactive” throughout. Also, the growth inhibition call in the test on S. aureus RN4220 is “inactive”.

As for `COc1ccc(C[C@@H](N)c2ccc(C)cn2)cc1OC`, the cytotoxicity call in the test on HSkMC and in the test with HepG2 was “inactive” in each case. For the same compound, in the test on S. aureus RN4220, the growth inhibition call is “inactive”.

On to `CC(=O)Nc1ccc(Cl)cc1C`, for which the cytotoxicity call in the test on HSkMC and in the test with HepG2 was “inactive” throughout. Also, in the test with S. aureus RN4220, the growth inhibition call was “inactive”.

On to `CCCC(=O)O[C@H]1CN2CC[C@H](O)[C@@H]2[C@@H](O)[C@@H]1O`, for which the cytotoxicity call in the test with HSkMC and in the test on HepG2 was “inactive” each time. Also, in the test with S. aureus RN4220, the growth inhibition call was “inactive”.

On to `O=C(O)C=CC(=O)O.c1ccc2nc(N3CCNCC3)ccc2c1`, for which, in the test on HSkMC, the cytotoxicity call is “inactive”. Also, the cytotoxicity call in the test with HepG2 is “active”. Besides, the growth inhibition call in the test with S. aureus RN4220 is “inactive”.

`O[C@H]1CNC[C@@H]1N1CCCCC1`: the cytotoxicity call in the test on HSkMC and in the test with HepG2 was “inactive” each time. For the same compound, the growth inhibition call in the test on S. aureus RN4220 was “inactive”.

Take `C[C@H]1CN([C@@H](C)CO)C(=O)CCCn2cc(nn2)CO[C@H]1CN(C)C(=O)Oc1ccc2ccccc2c1`: the cytotoxicity call in the test with HSkMC and with HepG2 was “inactive” each time. Also, the growth inhibition call in the test on S. aureus RN4220 was “inactive”.

As to `COP(=S)(OC)Oc1ccc(Sc2ccc(OP(=S)(OC)OC)cc2)cc1`, the cytotoxicity call in the test on HSkMC and with HepG2 was “inactive” in each case. In addition, the growth inhibition call with S. aureus RN4220 is “inactive”.

On to `C=CC=CCC1=C(C)C(OC(=O)C2C(C=C(C)C)C2(C)C)CC1=O` (stereo not drawn), for which the cytotoxicity call in the test with HSkMC and in the test on HepG2 was “inactive” in each case. For the same compound, the growth inhibition call in the test with S. aureus RN4220 is “inactive”.

`CC(C)c1ccc2[nH]c(=O)c(CCN)cc2c1`: the cytotoxicity call in the test with HSkMC and in the test on HepG2 was “inactive” each time. In the test on S. aureus RN4220, the growth inhibition call was “inactive”.

Consider `C[C@@H](N)Cc1c[nH]c2ccc(OCc3cccs3)cc12`, for which the cytotoxicity call in the test with HSkMC and in the test on HepG2 was “inactive” throughout. In the test on S. aureus RN4220, the growth inhibition call is “inactive”.

`NC(=O)c1cc([N+](=O)[O-])cc([N+](=O)[O-])c1`: the cytotoxicity call in the test with HSkMC and in the test with HepG2 was “inactive” each time. Also, the growth inhibition call with S. aureus RN4220 is “inactive”.

Consider `Nc1ccc([As](=O)(O)O)cc1`, for which the cytotoxicity call with HSkMC and with HepG2 was “inactive” each time. Besides, in the test with S. aureus RN4220, the growth inhibition call is “inactive”.

With `C[C@@H]1CN([C@H](C)CO)C(=O)CCCn2cc(nn2)CO[C@H]1CN(C)C(=O)Oc1ccc2ccccc2c1`, the cytotoxicity call in the test on HSkMC and in the test on HepG2 was “inactive” in each case. The growth inhibition call with S. aureus RN4220 is “inactive”.

As for `CCN1C[C@]2(OC(=O)c3ccccc3NC(C)=O)CC[C@@H](OC)[C@@]34[C@H]5C[C@@H]6[C@@H](OC)C[C@](O)([C@@H](C[C@@H]23)[C@@H]14)[C@]5(O)[C@H]6OC`, the cytotoxicity call in the test on HSkMC (human skeletal muscle cells) and in the test on HepG2 was “inactive” throughout. Further, the growth inhibition call in the test on S. aureus RN4220 is “inactive”.

As for `CC12CCC3C(CCC4(O)CC(O)CCC34C=O)C1(O)CCC2C1=CC(=O)OC1` (stereo not drawn), the cytotoxicity call in the test with HSkMC and in the test on HepG2 was “active” in each case. Further, in the test on S. aureus RN4220, the growth inhibition call is “inactive”.

For the compound `CNc1ccc2oc(C[C@H]3O[C@@]4(CC[C@H]3C)O[C@H]([C@H](C)C(=O)c3ccc[nH]3)[C@H](C)C[C@H]4C)nc2c1C(=O)O`, the cytotoxicity call in the test with HSkMC and with HepG2 was “active” throughout. For the same compound, the growth inhibition call in the test with S. aureus RN4220 was “inactive”.

These data come from the antibiotic and cytotoxicity screens of Wong et al. (2023).
